{"source": "PubChem BioAssay AID1508623", "about": "(National Center for Advancing Translational Sciences (NCATS), 2021)", "note": "Hit rate of the full screen: of about 48,000 compounds, about 450 (0.94%) were called active. About 19% were inconclusive and are not listed. The call rests on the fitted dose curve; in most records, active means well fitted inhibition curve with a large enough effect; inconclusive means small, poorly fitted or top-dose-only effect; inactive means no such curve, though single readings can be large or run the other way. The list shows a part of the results.", "data": [{"test": "Primary qHTS for Identification of Small Molecule Inhibitors of Huntingtin Promoter Activity; further: nearly all actives have a fitted effect of over 50% in size", "details": "HEK293 HTT promoter firefly luciferase reporter (activity 0% = vehicle and -100% = no light), 24 h; activity change, negative = inhibition: at the top concentration", "method_in_brief": "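Luminescence was read after Dual-Glo reagent and a 10 min room-temperature incubation. Values were normalized to vehicle (0% activity) and zero RLU (-100% activity). Reporter HEK293 cells had been exposed to compounds (up to 57.5 uM final) for 24 h.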", "values": [{"smiles": "O=[N+]([O-])c1c2ccccc2cc2ccccc12", "activity change, negative = inhibition": "inactive: 27.8% [at 116 µM]"}, {"smiles": "CC(=O)Nc1ccc(OC[C@](C)(O)C(=O)Nc2ccc([N+](=O)[O-])c(C(F)(F)F)c2)cc1", "activity change, negative = inhibition": "inactive: -15.9%"}, {"smiles": "COc1ccc2c3c1O[C@H]1[C@H](O)CC[C@H]4[C@@H](C2)N(C)CC[C@@]341", "activity change, negative = inhibition": "inactive: -12.7% [at 116 µM]"}, {"smiles": "O=c1c2ccccc2nc(/C=C/c2ccccc2F)n1-c1cccc(O)c1", "activity change, negative = inhibition": "inactive: -4.12%"}, {"smiles": "CCc1nc(SC)ncc1C(=O)Nc1ccc(Cl)cc1C(=O)c1ccccc1", "activity change, negative = inhibition": "inactive: -13.6%"}, {"smiles": "Cc1cccc(-c2nn3c(=O)cc(CN4CCN(C(=O)COc5ccc(Cl)cc5)CC4)nc3s2)c1", "activity change, negative = inhibition": "inactive: -12.1%"}, {"smiles": "CC(C)=CCN1CC[C@@]2(C)c3cc(O)ccc3C[C@@H]1[C@@H]2C", "activity change, negative = inhibition": "inactive: -7.32% [at 116 µM]"}, {"smiles": "CC(C)(C)NCC(O)c1cc(Cl)c(N)c(Cl)c1", "note": "(centres undefined)", "activity change, negative = inhibition": "inactive: 5.54%"}, {"smiles": "CC(N[C@H]1C[C@H]1c1ccccc1)c1ccc2c(c1)OCCO2", "note": "(some centres undefined)", "activity change, negative = inhibition": "inactive: 6.29%"}, {"smiles": "C=C(C)[C@H]1Cc2c(ccc3c2O[C@@H]2COc4cc(OC)c(OC)cc4[C@@H]2C3=O)O1", "activity change, negative = inhibition": "inactive: -39.4%"}, {"smiles": "CN(C)c1ccc(NC(=O)c2sc3nc4c(cc3c2N)N2CCC4CC2)cc1", "activity change, negative = inhibition": "inactive: -6.53%"}, {"smiles": "COC(=O)C1=CCCN(C)C1", "activity change, negative = inhibition": "inactive"}, {"smiles": "O=C(NC(=O)c1c(F)cccc1F)Nc1cc(Cl)c(OC(F)(F)C(F)C(F)(F)F)cc1Cl", "note": "(centres undefined)", "activity change, negative = inhibition": "inactive: -8.06%"}, {"smiles": "CNCC(=O)c1ccc(O)c(O)c1", "activity change, negative = inhibition": "inactive: -6.65%"}, {"smiles": "COc1ccc(OCC(=O)N2CCN(CCc3ccncc3)CC2)cc1", "activity change, negative = inhibition": "inactive: -3.95%"}, {"smiles": "NC1=NC(=O)N2CC12", "note": "(centres undefined)", "activity change, negative = inhibition": "inactive: -2.75%"}, {"smiles": "CCN(CC)C(=O)c1ccc(NC(=O)c2ccc(-c3nn(C)c(=O)c4ccccc34)cc2)cc1", "activity change, negative = inhibition": "inactive: -7.02%"}, {"smiles": "CCC1(CC)C(=O)C=CNC1=O", "activity change, negative = inhibition": "inactive: 10.4%"}, {"smiles": "COc1ccccc1C1SCC(=O)Nc2c1c(C)nn2-c1cccc(C)c1", "note": "(centres undefined)", "activity change, negative = inhibition": "inactive: -35.1%"}, {"smiles": "COc1ccc(Cc2nccc3cc(OC)c(OC)cc23)cc1OC", "activity change, negative = inhibition": "inactive"}, {"smiles": "CCCC12CN3CC(C)(CN(C1)C3c1c(C)[nH]c(=O)[nH]c1=O)C2=O", "note": "(centres undefined)", "activity change, negative = inhibition": "inactive: -15.2%"}, {"smiles": "COC(=O)[C@@H](N)CCCN=C(N)N[N+](=O)[O-]", "activity change, negative = inhibition": "inactive: -25.1%"}, {"smiles": "O=C(N/N=C/c1ccc([N+](=O)[O-])o1)c1cc([N+](=O)[O-])cc([N+](=O)[O-])c1O", "activity change, negative = inhibition": "inactive: -1.57%"}, {"smiles": "Cc1ccc(-c2nn3c(=O)cc(CN4CCN(C(=O)COc5ccc(C)c(C)c5)CC4)nc3s2)cc1", "activity change, negative = inhibition": "inactive: -13.9%"}, {"smiles": "CCCC1=Nc2cc(C(=O)NCCCN(CC)CC)ccc2Sc2ccccc21", "activity change, negative = inhibition": "inactive: -9.7%"}, {"smiles": "CCc1ccc(OCC(=O)N2CCN(CCc3ccncc3)CC2)cc1", "activity change, negative = inhibition": "inactive: -7.2%"}, {"smiles": "CC1NCCOC1c1ccccc1", "note": "(centres undefined)", "activity change, negative = inhibition": "inactive: -8.33%"}, {"smiles": "CCCN1CCC[C@@H]2Cc3[nH]ncc3C[C@H]21", "activity change, negative = inhibition": "inactive: 7.98%"}, {"smiles": "C#CC(O)(C=CCl)CC", "note": "(centres undefined)", "activity change, negative = inhibition": "inactive: 14.7%"}, {"smiles": "COc1cc(CCN)cc(OC)c1OC", "activity change, negative = inhibition": "inactive: -13.7% [at 116 µM]"}, {"smiles": "C[C@@H]1O[C@@H](O[C@H]2C[C@@H](O)[C@]3(CO)[C@H]4[C@H](O)C[C@]5(C)[C@@H](C6=CC(=O)OC6)CC[C@]5(O)[C@@H]4CC[C@]3(O)C2)[C@H](O)[C@H](O)[C@H]1O", "activity change, negative = inhibition": "inactive: -38.9%"}, {"smiles": "CCCN1CCO[C@@H]2c3cc(O)ccc3OC[C@@H]21", "activity change, negative = inhibition": "inactive: -0.399%"}, {"smiles": "COc1cccc2c1C(=O)c1c(O)c3c(c(O)c1C2=O)C[C@@](O)(C(=O)CO)CC3OC1CC(N2CCOC(OC)C2)C(O)C(C)O1", "note": "(some centres undefined)", "activity change, negative = inhibition": "inactive: -33.4%"}, {"smiles": "O=C(O)CCCCCCNC1c2ccccc2CCc2ccccc21", "activity change, negative = inhibition": "inactive: -6.88%"}, {"smiles": "COP(=S)(OC)Oc1ccc(S(N)(=O)=O)cc1", "activity change, negative = inhibition": "inactive: -3.64%"}, {"smiles": "CCOc1ccc2nc(NC(=O)c3cccn(Cc4ccccc4Cl)c3=O)sc2c1", "activity change, negative = inhibition": "inactive: 2.08%"}, {"smiles": "CCOc1ccc(CN(CCc2ccc3c(c2)OCO3)Cc2ccc(OC)c(Br)c2)cc1", "activity change, negative = inhibition": "inactive: -22.3%"}, {"smiles": "Cc1nc2ccccc2c(=O)n1-c1ccccc1Cl", "activity change, negative = inhibition": "inactive: -18.2% [at 116 µM]"}, {"smiles": "[N-]=[N+]=CC(=O)OC[C@H](N)C(=O)O", "activity change, negative = inhibition": "inactive: 4.63%"}, {"smiles": "CCN(CC)Cc1nccn1-c1ccc([N+](=O)[O-])cc1C(=O)c1ccccc1Cl", "activity change, negative = inhibition": "inactive: -5.61%"}, {"smiles": "CNC(C)Cc1ccc2c(c1)OCO2", "note": "(centres undefined)", "activity change, negative = inhibition": "inactive: 3.06% [at 116 µM]"}, {"smiles": "CN(C)C(=O)Oc1cc(OC(=O)N(C)C)cc(C(O)CNC(C)(C)C)c1", "note": "(centres undefined)", "activity change, negative = inhibition": "inactive: -2.32%"}, {"smiles": "NCCc1ccc(O)cc1", "activity change, negative = inhibition": "inactive: 8.87%"}, {"smiles": "Cc1ccc(C(C)C)c(OCC(=O)N2CCN(CCc3ccncc3)CC2)c1", "activity change, negative = inhibition": "inactive: -16.2%"}, {"smiles": "C[C@@H]1[C@H](O)[C@@H](C)C=CC=CCCC=CC=CC=CC=C[C@H](O[C@H]2O[C@@H](C)[C@H](O)[C@@H](N)[C@@H]2O)CC2O[C@](O)(C[C@@H](O)[C@H](O)CC[C@@H](O)C[C@@H](O)C[C@@H](O)CC(=O)O[C@H]1C)C[C@H](O)[C@H]2C(=O)O", "activity change, negative = inhibition": "inactive: 7.9%"}, {"smiles": "C[C@@H](N)[C@@H](O)c1ccccc1", "activity change, negative = inhibition": "inactive: 14.6%"}, {"smiles": "CCC1(c2ccc(N)cc2)CCC(=O)NC1=O", "note": "(centres undefined)", "activity change, negative = inhibition": "inactive"}, {"smiles": "ClC1=C(Cl)[C@]2(Cl)[C@@H]3[C@@H]4C[C@@H]([C@H]5O[C@@H]45)[C@@H]3[C@@]1(Cl)C2(Cl)Cl", "activity change, negative = inhibition": "inactive: 1.58% [at 116 µM]"}, {"smiles": "Cc1ccc(C(=O)Nc2ccccc2)cc1S(=O)(=O)N1CCCC1", "activity change, negative = inhibition": "inactive: -19%"}, {"smiles": "O=C(O)c1ccc2[nH]cc(CCCCN3CC=C(c4ccccc4)CC3)c2c1", "activity change, negative = inhibition": "inactive: -4.3%"}, {"smiles": "Cc1ccccc1-n1c(/C=C/c2ccc(N(C)C)cc2)nc2ccccc2c1=O", "activity change, negative = inhibition": "inactive: -21.9%"}, {"smiles": "O=[N+]([O-])c1cc([As](=O)(O)O)ccc1O", "activity change, negative = inhibition": "inactive: 5.54%"}, {"smiles": "O=C(c1ccc2c(c1)N(Cc1ccc(F)cc1)C(=O)c1ccccc1S2)N1CCC2(CC1)OCCO2", "activity change, negative = inhibition": "inactive: -3.86%"}, {"smiles": "COc1ccc(OCC(=O)N2CCN(Cc3cc(=O)n4nc(-c5ccc(OC)cc5)sc4n3)CC2)cc1", "activity change, negative = inhibition": "inactive: -29.5%"}, {"smiles": "Cc1ccc(OCC(=O)N2CCN(CCc3ccncc3)CC2)cc1", "activity change, negative = inhibition": "inactive: 6.19%"}, {"smiles": "CC(C)c1ccc(OCC(=O)N2CCN(CCc3ccccn3)CC2)cc1", "activity change, negative = inhibition": "inactive: -15.8%"}, {"smiles": "C[C@]12CC[C@@H]3c4ccc(OC(=O)N(CCCl)CCCl)cc4CC[C@H]3[C@@H]1CC[C@@H]2O", "activity change, negative = inhibition": "inactive: -7.98%"}, {"smiles": "C[C@H]([C@H](O)CCC(C)(C)O)[C@H]1CC[C@@]2(O)C3=CC(=O)[C@@H]4C[C@@H](O)[C@@H](O)C[C@]4(C)[C@@H]3CC[C@]12C", "activity change, negative = inhibition": "inactive: -7.86%"}, {"smiles": "CC1N=C(N)OC1c1ccccc1", "note": "(centres undefined)", "activity change, negative = inhibition": "inactive: -1.19% [at 116 µM]"}, {"smiles": "Cc1ccc(OCC(=O)Nc2ccc(Cl)cc2C(=O)c2ccccc2)cc1C", "activity change, negative = inhibition": "inactive: -0.999%"}, {"smiles": "COc1cccc(-c2nn3c(=O)cc(CN4CCN(C(=O)COc5ccccc5C)CC4)nc3s2)c1", "activity change, negative = inhibition": "inactive: -10.2%"}, {"smiles": "CCCCCCCCc1ccc(O)cc1", "activity change, negative = inhibition": "inactive: 5.85% [at 116 µM]"}, {"smiles": "Cc1nnc(NC(=O)c2cccn(Cc3cccc(F)c3)c2=O)s1", "activity change, negative = inhibition": "inactive: 0%"}, {"smiles": "O=c1oc2ccccc2c(O)c1Cc1c(O)c2ccccc2oc1=O", "activity change, negative = inhibition": "inactive: 4.24%"}]}]}
